Measured values published in PubChem BioAssay AID485344 (National Center for Advancing Translational Sciences (NCATS), 2010).
The campaign covered roughly 340,000 compounds. About 6,900 (2%) were called active. Cut-off read from the data, not from the text of the source: active = inhibition above about 30%; inactive = below that, where a call was filed. This is a selection; strong and weak results do not stand in their true shares. Where no call is shown, the source filed none.

molecular target: D(2) dopamine receptor (Homo sapiens) (UniProt P14416); assay: HTS Assay for Allosteric Antagonists of the Human D2 Dopamine Receptor: Primary Screen for Antagonists; details: HEK293 TREx D2 cells, calcium flux, dopamine EC80; at 10 µM; stronger effect = higher value; note: 0% is about no effect
In short: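 Calcium flux kinetic readout in an inducible HEK293 TREx D2 line plated overnight at 30 C. After 180 s compound exposure, an EC80 dopamine challenge follows with another 180 s kinetic read to detect antagonism.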

UniProt P14416, sequence (P14416 whole entry, looked up): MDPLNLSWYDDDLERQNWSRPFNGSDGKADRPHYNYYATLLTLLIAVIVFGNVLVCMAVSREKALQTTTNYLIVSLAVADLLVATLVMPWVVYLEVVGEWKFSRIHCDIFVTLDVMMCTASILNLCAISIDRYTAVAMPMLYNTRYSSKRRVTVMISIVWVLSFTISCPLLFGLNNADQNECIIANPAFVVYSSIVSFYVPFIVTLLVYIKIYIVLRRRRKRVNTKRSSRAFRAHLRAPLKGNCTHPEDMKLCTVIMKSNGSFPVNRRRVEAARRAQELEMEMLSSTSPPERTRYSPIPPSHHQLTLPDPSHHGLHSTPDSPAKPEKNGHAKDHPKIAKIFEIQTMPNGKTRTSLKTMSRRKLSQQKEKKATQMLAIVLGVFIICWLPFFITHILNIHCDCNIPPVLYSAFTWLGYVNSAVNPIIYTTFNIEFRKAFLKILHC

| SMILES | inhibition |
| --- | --- |
| Fc1cccc(CN2CCc3nc(Nc4ccc5c(c4)OCCO5)ncc3C2)c1F | -1.14% |
| O=C(CSc1ccc2ccccc2c1)NCCc1ccc(O)c(O)c1 | active: 51.2% |
| CCOC(=O)c1c(-c2ccccc2)oc2ccc(OCc3ccccc3Br)cc12 | -5.03% |
| CCOc1ccccc1NC(=O)Cn1c(=O)oc2ccccc21 | 5.95% |
| COc1ccc(-c2noc(N3CCC(C(=O)N4CCN(c5cccc(OC)c5)CC4)CC3)n2)cc1 | 11.7% |
| COc1ccc(NC(=O)Cn2cc(C(=O)c3ccc(C)c(C)c3)c(=O)c3cc(OC)ccc32)cc1 | 0.454% |
| Clc1cccc(CNCCCSc2nnnn2-c2ccccc2)c1 | 14.9% |
| COC(=O)c1scc(-c2ccc(C)cc2)c1S(=O)(=O)Nc1cc(C)c(Cl)cc1OC | 3.6% |
| Cc1cccc(N2CCN(C(=O)CCS(=O)(=O)c3ccc4c(c3)CC(=O)N4C)CC2C)c1 (stereo not drawn) | 0.411% |
| Cc1ccc(NS(=O)(=O)c2ccc3c(c2)n(C)c(=O)n3C)c(C)c1 | 9.64% |
| CC(=O)N1CCN(c2csc3ccc(Cl)cc3c2=O)CC1 | 8.27% |
| CCCCOC(=O)c1ccc(NC(=O)c2ccc3c(c2)CCN3S(C)(=O)=O)cc1 | -24.7% |
| Cc1cccc(C(c2sc3nc(-c4ccco4)nn3c2O)N2CCOCC2)c1 (stereo not drawn) | -21.5% |
| Cc1cccc(CNC(=O)Cn2nc(C)c3nn(-c4ccc(Cl)cc4)c(C)c3c2=O)c1 | 2.87% |
| Cc1c(CNC2CCCCCC2)c(C(=O)O)c(C)n1Cc1cccc(Cl)c1 | -13.7% |
| Cc1ccccc1Nc1c(-c2c[nH]c3ccccc23)nc2ccc(Cl)cn12 | -8.62% |
| O=C(CSc1nc(Nc2ccccc2)c2ccccc2n1)c1ccc(Cl)cc1 | 3.48% |
| Cc1cc(C)cc(NC(=O)NCc2c(-n3cccc3)sc3c2CCCC3)c1 | 14.7% |
| CSc1ncc(Cl)c(C(=O)Nc2c(C(=O)c3ccc(Cl)cc3)oc3ccccc23)n1 | -17.1% |
| Cc1ccc(-n2ncc(C(=O)N3CCN(c4ccccc4F)CC3)c2C2CCN(C(=O)OC(C)(C)C)CC2)cc1C | -9.3% |
| Cc1cccc(OC(=O)CSc2nnc(-c3cccs3)o2)c1C | 3.61% |
| Cc1c(NC(=O)Cc2ccc(Cl)cc2)cccc1-c1nc2cccnc2s1 | 3.3% |
| CCOC(=O)c1c(C)[nH]c(C)c1S(=O)(=O)NCC(=O)Nc1cccc(Cl)c1 | 4.35% |
| COc1ccc(OC)c(CCNC(=O)c2c(C)oc3ncn(C)c(=O)c23)c1 | 0.476% |

| SMILES | inhibition |
| --- | --- |
| CCOc1ccc(S(=O)(=O)N(CC(=O)NCCc2ccc(OC)c(OC)c2)c2ccccc2)cc1 | 2.25% |
| COc1ccc(NC(=O)CN2C(=O)CSc3ccc(S(=O)(=O)N4CCCC4)cc32)cc1OC | -9.99% |
| Cc1ccccc1Cn1c(CN2CCC(C(=O)NCCN(C)C)CC2)cc2ccccc21 | -0.0165% |
| Cc1ccccc1NC(=O)CN1C(=O)C(C)(C)c2ccccc21 | -0.062% |
| CCCCNC(=O)c1cnn2c(C)c(Cc3c(F)cccc3Cl)c(C)nc12 | 5.28% |
| COc1cccc(NC(=O)c2cc3c(=O)n(C)c4ccccc4c3n2C)c1 | 3.41% |
| Cc1ccc(CNC(=O)C2CCN(S(=O)(=O)c3ccc4c(c3)CCCN4C(=O)C3CCC3)CC2)cc1 | -0.852% |
| CCOc1ccc2c(c1)c(=O)c(S(=O)(=O)c1ccccc1)cn2CC(=O)Nc1ccccc1OC | 19.4% |
| Cc1nc(-c2ccccc2)sc1CCNS(=O)(=O)c1ccccc1 | 14.2% |
| O=C(NCCSc1c(-c2ccccc2)[nH]c2ccccc12)c1ccc(S(=O)(=O)N2CCOCC2)cc1 | 2.12% |
| O=C(O)c1cc(-c2ccc(C(F)(F)F)cc2)nc2n[nH]c(-c3ccccc3)c12 | -3.94% |
| CCc1ccc(S(=O)(=O)c2cn(CC)c3cc(N4CCOCC4)c(F)cc3c2=O)cc1 | -21.9% |
| CC(=O)c1ccc(NC(=O)Cn2cc3c(n2)CCCC3)cc1 | 3.78% |
| CCOc1ccc(CN2CCN(c3ncnc4sc5c(c34)CC(C)CC5)CC2)cc1 (stereo not drawn) | -8.25% |
| COc1cc(Cl)c(CC(=O)c2c[nH]c3ccccc23)cc1OC | active: 32.5% |
| COc1ccccc1C(=O)Nc1nnc(S(=O)(=O)N(C)c2ccc(Cl)cc2)s1 | -5.9% |
| COc1ccc(Cl)cc1NC(=O)c1ccc2c(c1)CCCN2S(C)(=O)=O | 13.4% |
| Cc1ccc(-n2ncc(C(=O)NCCCN3CCCCC3)c2C2CCN(C(=O)OC(C)(C)C)CC2)cc1 | 0.663% |
| COc1cccc(OC)c1C(=O)Nc1ccc(S(=O)(=O)Nc2nccc(C)n2)cc1 | -12.9% |
| CCOC(=O)c1c(C)n(-c2ccccc2)c2ccc(OC(=O)c3ccccc3NC(=O)C(C)(C)C)cc12 | 9.06% |
| Cc1ccc(NC(=O)c2c(C)nc3sc(C(=O)Nc4ccc(F)cc4)c(N)c3c2-c2ccccc2Cl)c(C)c1 | -4.51% |
| O=C1CSC(=Nc2cccc([N+](=O)[O-])c2)N1 | active: 42.8% |
| Cc1ccc(N(Cc2cccs2)C(=O)COc2cccc(C)c2)cc1 | 8.84% |
| Cc1cccc(CNC(=O)c2cnc3sc(N4CCCCCC4)nn3c2=O)c1 | 17.5% |
